In the supplement of paper PMC8728848:
The other results are listed elsewhere or left out.

What was measured:
Assay in all cases: glycan array binding signal (z-score within array); higher = stronger binding
Details in all cases: glycan notation: IUPAC condensed, linker removed
[1] = target: Fuc(a1-2)Gal(b1-4)GlcNAc(b1-3)Gal(b1-4)GlcNAc(b1-3)Gal(b1-4)GlcNAc
Outline: (§1)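 The binding signal is a Z-score computed within each array and averaged over linkers. Arrays of the same protein sequence at different concentrations or buffers were also averaged together. Data originate from 3228 arrays in the Consortium for Functional Glycomics database, kept only where the protein sequence was available.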

[2] = target: Fuc(a1-2)Gal(b1-4)GlcNAc(b1-3)GalNAc
Outline: as §1

[3] = target: Fuc(a1-2)Gal(b1-4)GlcNAc(b1-3)[Fuc(a1-2)Gal(b1-4)GlcNAc(b1-6)]GalNAc
Outline: as §1

[4] = target: Fuc(a1-2)Gal(b1-4)GlcNAc(b1-3)[Fuc(a1-3)[Gal(b1-4)]GlcNAc(b1-6)]Gal(b1-4)Glc
Outline: as §1

[5] = target: Fuc(a1-2)Gal(b1-4)GlcNAc(b1-6)GalNAc
Outline: as §1

[6] = target: Fuc(a1-2)Gal(b1-4)GlcNAc6S
Outline: as §1

[7] = target: Fuc(a1-2)Gal(b1-4)[Fuc(a1-3)]GlcNAc
Outline: as §1

[8] = target: Fuc(a1-2)Gal(b1-4)[Fuc(a1-3)]GlcNAc(b1-2)Man(a1-3)[Fuc(a1-2)Gal(b1-4)[Fuc(a1-3)]GlcNAc(b1-2)Man(a1-6)]Man(b1-4)GlcNAc(b1-4)[Fuc(a1-6)]GlcNAc
Outline: as §1

[9] = target: Fuc(a1-2)Gal(b1-4)[Fuc(a1-3)]GlcNAc(b1-2)[Fuc(a1-2)Gal(b1-4)[Fuc(a1-3)]GlcNAc(b1-4)]Man(a1-3)[Fuc(a1-2)Gal(b1-4)[Fuc(a1-3)]GlcNAc(b1-2)Man(a1-6)]Man(b1-4)GlcNAc(b1-4)GlcNAc
Outline: as §1

[10] = target: Fuc(a1-2)Gal(b1-4)[Fuc(a1-3)]GlcNAc(b1-3)Gal(b1-4)[Fuc(a1-3)]GlcNAc
Outline: as §1

[11] = target: Fuc(a1-2)Gal(b1-4)[Fuc(a1-3)]GlcNAc(b1-3)Gal(b1-4)[Fuc(a1-3)]GlcNAc(b1-3)Gal(b1-4)[Fuc(a1-3)]GlcNAc
Outline: as §1

[12] = target: Fuc(a1-2)Gal(b1-4)[Fuc(a1-3)]GlcNAc(b1-3)GalNAc
Outline: as §1

[13] = target: Fuc(a1-2)Gal(b1-4)[Fuc(a1-3)]GlcNAc(b1-3)[Neu5Ac(a2-6)Gal(b1-4)GlcNAc(b1-6)]Gal(b1-4)Glc
Outline: as §1

[14] = target: Fuc(a1-2)Gal3S(b1-4)GlcNAc
Outline: as §1

[15] = target: Fuc(a1-2)Gal6S(b1-3)GlcNAc
Outline: as §1

[16] = target: Fuc(a1-2)Gal6S(b1-3)GlcNAc6S
Outline: as §1

Fuc(a1-2)Gal6S(b1-4)Glc = target: Fuc(a1-2)Gal6S(b1-4)Glc
Outline: as §1

[17] = target: Fuc(a1-2)Gal6S(b1-4)Glc6S
Outline: as §1

Fuc(a1-2)[Gal(a1-3)]Gal = target: Fuc(a1-2)[Gal(a1-3)]Gal
Outline: as §1

[18] = target: Fuc(a1-2)[Gal(a1-3)]Gal(b1-3)GalNAc
Outline: as §1

[19] = target: Fuc(a1-2)[Gal(a1-3)]Gal(b1-3)GalNAc(b1-3)Gal(a1-4)Gal(b1-4)Glc
Outline: as §1

[20] = target: Fuc(a1-2)[Gal(a1-3)]Gal(b1-3)GlcNAc
Outline: as §1

[21] = target: Fuc(a1-2)[Gal(a1-3)]Gal(b1-3)GlcNAc(b1-2)Man(a1-3)[Fuc(a1-2)[Gal(a1-3)]Gal(b1-3)GlcNAc(b1-2)Man(a1-6)]Man(b1-4)GlcNAc(b1-4)GlcNAc
Outline: as §1

[22] = target: Fuc(a1-2)[Gal(a1-3)]Gal(b1-3)GlcNAc(b1-2)Man(a1-3)[Fuc(a1-2)[Gal(a1-3)]Gal(b1-3)GlcNAc(b1-2)Man(a1-6)]Man(b1-4)GlcNAc(b1-4)[Fuc(a1-6)]GlcNAc
Outline: as §1

[23] = target: Fuc(a1-2)[Gal(a1-3)]Gal(b1-3)GlcNAc(b1-3)GalNAc
Outline: as §1

[24] = target: Fuc(a1-2)[Gal(a1-3)]Gal(b1-3)GlcNAc(b1-6)GalNAc
Outline: as §1

[25] = target: Fuc(a1-2)[Gal(a1-3)]Gal(b1-4)Glc
Outline: as §1

[26] = target: Fuc(a1-2)[Gal(a1-3)]Gal(b1-4)GlcNAc
Outline: as §1

[27] = target: Fuc(a1-2)[Gal(a1-3)]Gal(b1-4)GlcNAc(b1-2)Man
Outline: as §1

[28] = target: Fuc(a1-2)[Gal(a1-3)]Gal(b1-4)GlcNAc(b1-2)Man(a1-3)[Fuc(a1-2)[Gal(a1-3)]Gal(b1-4)GlcNAc(b1-2)Man(a1-6)]Man(b1-4)GlcNAc(b1-4)GlcNAc
Outline: as §1

B1: PX14379A-bvu-539-28-539 (Bacteroides vulgatus) (protein)
chain: EPYSEIIEEDYVPTEADEIALLATTYSQLRFVMDWYGLFDLQEESGDVIVTPTRPNGWDDGGTYKQMHKHTWDNQQGQPQSIWDYCYKGIANANKILKRADEGFFTEESKPKVVAEVKGVRALWYSILCDTHGNIPIQTSFSEEVPVQSTRKQVFDFIINELKEVMPNLPTEVNKSTYGRLTQWGAKCLMARMYLNAGVYTGTPMWNECLEQCNDIINSGLFSLETNYTDIFKTENSGCVETIFAIPYDEVYNEGDNNGPVFGAHMKFLSSNSRKVFNMQTTPWGGSAANPQFINSYDPDDMRLKYTWLQGDQYSPDGVLITTFPNKLPSIYKTDTDDGYRVGKYEIKVGAKSLLSNDFPYFRYTEVLLMKAECLLRLGQNETEAAHIVSQIRERAFRESAHPEKATVDAAWLKGDTHINYGTLDEKGQIDDAGNTEVVELGGLYDEWGWEFAAEARRRTDMIRFGTYQKKSWFNHTPTANDLNGNSILFPIHLDHLNTNPNLQQNPGYAGK
- glycan array binding signal (z-score) [1]: 0.063
- glycan array binding signal (z-score) [2]: -0.13
- glycan array binding signal (z-score) [3]: -0.243
- glycan array binding signal (z-score) [4]: -0.161
- glycan array binding signal (z-score) [5]: 0.044
- glycan array binding signal (z-score) [6]: -0.256
- glycan array binding signal (z-score) [7]: -0.17
- glycan array binding signal (z-score) [8]: 0.249
- glycan array binding signal (z-score) [9]: 0.213
- glycan array binding signal (z-score) [10]: -0.369
- glycan array binding signal (z-score) [11]: -0.279
- glycan array binding signal (z-score) [12]: -0.231
- glycan array binding signal (z-score) [13]: -0.301
- glycan array binding signal (z-score) [14]: -0.25
- glycan array binding signal (z-score) [15]: -0.318
- glycan array binding signal (z-score) [16]: -0.24
- glycan array binding signal (z-score) (Fuc(a1-2)Gal6S(b1-4)Glc): -0.528
- glycan array binding signal (z-score) [17]: -0.173
- glycan array binding signal (z-score) (Fuc(a1-2)[Gal(a1-3)]Gal): -0.149
- glycan array binding signal (z-score) [18]: -0.221
- glycan array binding signal (z-score) [19]: -0.26
- glycan array binding signal (z-score) [20]: -0.419
- glycan array binding signal (z-score) [21]: 9.25
- glycan array binding signal (z-score) [22]: -0.006
- glycan array binding signal (z-score) [23]: -0.295
- glycan array binding signal (z-score) [24]: -0.17
- glycan array binding signal (z-score) [25]: 0.003
- glycan array binding signal (z-score) [26]: -0.199
- glycan array binding signal (z-score) [27]: 0.337
- glycan array binding signal (z-score) [28]: 0.349
